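Where inhibition never reached the appropriate level, the endpoint shown equals the highest concentration tested. Otherwise, values were interpolated linearly from a five-concentration, 48-hour dose response in 96-well plates. At the GI50, growth is halved.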 Activity calls are given as the source filed them. Cut-off read from the data, not from the text of the source: active = GI50 up to about 1.1 µM and inactive = higher.
System: NCI-H322M
Assay: growth of human tumour cells (NCI), 48 h

Compound	GI50
C[C@H](CCC(=O)O)[C@H]1CC[C@H]2[C@@H]3[C@@H](O)C[C@@H]4C[C@H](O)CC[C@]4(C)[C@H]3C[C@H](O)[C@]12C	inactive: > 100 µM
COc1cc(-c2cc(O)c3cc4c(cc3n2)OCO4)cc(OC)c1OC	inactive: 43.2 µM
CCCCCN(CCCCC)C(=O)[C@H](CCC(=O)O)NC(=O)c1cc2ccccc2[nH]1	inactive: 44.5 µM
N=C1C=CC(=C(c2ccc(N)cc2)c2ccc(N)cc2)C=C1	inactive: 3.57 µM
CC1(n2nc(-c3ccccc3)n(-c3ccccc3)c2=O)CSC1	inactive: > 100 µM
CN(C)CCNC(=O)c1cccc(NC(=O)c2ccccc2)c1[N+](=O)[O-]	inactive: 67.5 µM
C=C1C(C)C2C(Cc3ccccc3)NC(=O)C23C(OC(C)=O)C=CC(C)(O)C(=O)C(C)C/C=C/C3C1O (stereo unspecified)	inactive: 58.3 µM
COC(NC(=O)Nc1ccc(C)cc1)(C(F)(F)F)C(F)(F)F	inactive: 45.1 µM
O=C(O)CCC(NC(=O)c1ccc(Nc2nc3ccc(C(F)(F)F)cc3nc2-c2ccccc2)cc1)C(=O)O (stereo unspecified)	inactive: > 100 µM
COC(=O)CC1NC(=O)[C@@H]1C(C)O (stereo partly specified)	inactive: > 100 µM
Cc1cccc(Nc2nc(NNC(=O)Cc3ccccc3)nc(NNC(=O)c3ccncc3)n2)c1	inactive: > 10 µM
CCOP(=O)(OCC)C1CCCOC1=O (stereo unspecified)	inactive: > 100 µM
COC(=O)C1=C(O)CCCC(C2CCCCC(=O)C2C(=O)OC)=C1 (stereo unspecified)	inactive: 79.1 µM
Cc1nc2ccccc2n1Cc1nnc(N)o1	inactive: > 100 µM
Cc1cc(C)c2c(c1)CC1(Cc3c(C)cc(C)cc3C1=O)C2=O (stereo unspecified)	inactive: > 100 µM
[O-][S+]1c2ccccc2N=C(c2ccc(Cl)cc2)CC1c1cccs1 (stereo unspecified)	inactive: 29.7 µM
CCOC(=O)C(OP(=O)(OCC)OCC)C(F)(F)F (stereo unspecified)	inactive: > 100 µM
O=C(CCn1[nH]c(=O)c(Cl)c(Cl)c1=O)NOCCCc1ccccc1	inactive: > 100 µM
Cc1ccc(N(C(=O)CC(=O)NN)C(=O)c2ccccc2Cl)cc1	inactive: > 100 µM
C1=Cc2cccc3occ(c23)C=C1	inactive: > 100 µM
NNc1[nH]c(=S)[nH]c1C(N)=O	inactive: > 100 µM
COP(=O)(CP(=O)(OC)OCCC(C)CCC=C(C)C)OC (stereo unspecified)	inactive: > 100 µM
O=C1c2cc3ccccc3cc2C2(c3ccc(Cl)cc3)NCCN12 (stereo unspecified)	inactive: 35.1 µM
c1ccc(CSc2nc(N3CCOCC3)c3cn[nH]c3n2)cc1	inactive: 30.4 µM

Compound	GI50
CC(C)=CCC[C@H](C)[C@H]1CC[C@@H](C)c2cc(O)c(C)cc21	inactive: 17.4 µM
CCCCCCSc1nc(COC(=O)NC)c(COC(=O)NC)n1C	inactive: > 100 µM
CN(C)c1ccc(/C=C/C=C\c2cc(/C=C/C=C/c3ccc(N(C)C)cc3)[s+]c3ccccc23)cc1.[O-][Cl+3]([O-])([O-])[O-]	inactive: > 100 µM
Cc1ccc(S(=O)(=O)SC(C)(C)C)cc1	inactive: > 100 µM
O=C(O)\C=C/C=C/C=C/C=C/C(=O)O	inactive: > 100 µM
Cc1ccc2c(c1)-c1c(C#N)c(N)nc(-c3ccc(Cl)cc3)c1CCS2(=O)=O	inactive: 23.1 µM
O=c1cc2ccccc2nn1Cc1ccccc1Cl	inactive: 56.5 µM
N#Cc1c(Cl)cccc1Oc1ccc(S(=O)(=O)/N=C(\NN)Nc2ccc(Cl)cc2)cc1	inactive: 32.4 µM
C=CC(c1ccccc1)C1(O)c2cccc(O)c2C(=O)c2c(O)cccc21 (stereo unspecified)	inactive: 19.1 µM
CC(=O)CC1CCC(=O)CCC(=O)OC(CC(C)=O)CCC(=O)CCC(=O)O1 (stereo unspecified)	inactive: > 100 µM
O=C1C=CC(CC(=O)c2ccc3ccccc3c2)O1 (stereo unspecified)	inactive: 17.7 µM
C=CCc1cc(-c2cc(CC=C)c(O)c(CNC)c2)cc(CNC)c1O	inactive: 17 µM
c1ccc(C2SCc3nc4ccccc4n32)cc1 (stereo unspecified)	inactive: 71.1 µM
N#Cc1ccsc1Nc1ccccc1[N+](=O)[O-]	inactive: > 100 µM
Cc1cc2c(cc1Cl)Sc1nnc(Nc3ccccc3)n1S2(=O)=O	inactive: 19.7 µM
Cc1ccc(S(=O)(=O)OC2=C/C(=N\c3onc(C)c3C)c3ccccc3C2=O)cc1	inactive: 45 µM
N#Cc1nc(COCc2ccccc2)oc1N	inactive: > 100 µM
CC(=O)/C(=C/n1c(=S)[nH]c2ccccc21)C(=O)Nc1ccccc1C	inactive: > 100 µM
CSc1cc(Br)ccc1-n1c(C(=O)c2ccccc2)c(SC)n(-c2ccccc2)c1=O	inactive: > 100 µM
Clc1ccccc1CN1COc2c(ccc3cccnc23)C1	inactive: 4.24 µM
COc1ccc2nc3c([N+](=O)[O-])ccc(NCCCN(C)C)c3c(N)c2c1	inactive: 1.39 µM
CCOC(=O)c1nc2cc(F)c(N3CCOCC3)cc2[nH]c1=O	inactive: > 100 µM
COc1ccc(NC(=O)C(=O)NNC(=O)c2sc(NNC(C)=O)nc2C)c([N+](=O)[O-])c1	inactive: > 100 µM
Nc1nc(NC2C=C(CO)C(O)C2O)c([N+](=O)[O-])c(=O)[nH]1 (stereo unspecified)	inactive: > 100 µM

Compound	GI50
CCCCCCCCCCCCC/C=C/[C@H]1[C@@H](C(=O)OC)N1[S+]([O-])c1ccc(C)cc1 (stereo partly specified)	inactive: > 100 µM
CC(=O)O[C@H]1C[C@H]2C(=S)Nc3ccccc3C(=S)N2C1	inactive: > 100 µM
Cn1c(O)c(C(=O)Nc2cccs2)c(=O)[nH]c1=S	inactive: 20.7 µM
COc1ccc(NC(=S)N/N=C/c2cccc(C)n2)cc1	inactive: 11.9 µM
CCOc1ccccc1NC(=O)C1=C(C)NC(C)=C(C(=O)Nc2ccccc2OCC)C1c1ccc(NC(C)=O)cc1	inactive: 46.9 µM
CC#CC#C/C=C1/O[C@]2(CCC(OC(C)=O)CO2)[C@@H]2O[C@H]12 (stereo partly specified)	inactive: 33.3 µM
CNC(=S)/C(C#N)=C(\N)N1CCCC1	inactive: > 100 µM
Cc1n[nH]c(N)c1C(N)=O	inactive: > 100 µM
COC1CC(OC2CCC3(C)C(=CCC4C3C(OC(C)=O)C(OC(=O)CC(C)C)C3(C)C(C(C)=O)CCC43O)C2)OC(C)C1OC1CC(OC)C(OC2CC(OC)C(OC3OC(C)C(OC4OC(CO)C(O)C(O)C4O)C(OC)C3O)C(C)O2)C(C)O1 (stereo unspecified)	inactive: > 75 µM
Cc1cc(O)nc(NNC(C#N)c2ccc(O)cc2)n1 (stereo unspecified)	inactive: > 100 µM
CC1(C)OC[C@@H]([C@H](C=O)OCc2ccccc2)O1	inactive: > 100 µM
Cn1c2c(c3ccccc31)CCN1C(=O)C3SC21C1C(=O)N(c2ccccc2)C(=O)C31 (stereo unspecified)	inactive: > 100 µM
CC(=C/c1ccccc1)/C=C1/NC(=S)N(/C=C2\C(=O)Oc3ccccc3C2=O)C1=O	inactive: 59.4 µM
O=C1c2ccccc2-c2c1c(-c1ccc([N+](=O)[O-])cc1)nc1ccc3ccccc3c21	inactive: > 100 µM
Cc1cc(NS(=O)(=O)c2ccc(NC(=O)c3ccc(Cl)c4c(Nc5ccc(S(=O)(=O)N=C(N)N)cc5)c5ccccc5nc34)cc2)no1	inactive: 34.5 µM
CC(=O)Nc1ccccc1SCCSSCCSc1ccccc1NC(C)=O	inactive: 58.2 µM
CCCO/N=[N+](\[O-])N(CC)CC	inactive: > 100 µM
O=C1C(=O)N(c2cc(Cl)ccc2Cl)C(=O)C(=O)C1c1nc2ccccc2s1	inactive: 45 µM
Cc1ccc(N/N=C2\C3=C(CCC(C)(C)O3)C(=O)c3ccccc32)cc1	inactive: 17.7 µM
Nc1ccc(C(=O)NN2C(=O)C(Cl)C2c2cccc(O)c2)cc1 (stereo unspecified)	inactive: 16.1 µM
CCOC(=O)C1=C(O)C(=O)c2ccoc2C1=O	inactive: > 100 µM
NCc1ccc(-c2ccc(-c3ccc(-c4ccc(CN)s4)s3)s2)s1	inactive: > 100 µM
Cc1ccc(S(=O)(=O)/N=C(\NN)Nc2ccc(Cl)cc2)cc1	inactive: > 100 µM
CCN(CC)CCNc1ccc2ncn3c4ccccc4c(=O)c1c23	inactive: 2.95 µM

Compound	GI50
COc1cc(C=O)cc(/C=N/c2ccc(S(N)(=O)=O)cc2)c1O	inactive: 17.5 µM
O=C(Cn1c2c(c3ccccc31)CCCC2)N1CCCCC1	inactive: > 100 µM
O=c1cc(-c2ccccc2)[nH]c2cc(F)c(F)cc12	active: 0.455 µM
CSc1ncc2c(C#N)c3[nH]c4ccccc4n3c(=O)c2n1	inactive: 16.4 µM
O=S1(=O)OCCOS(=O)(=O)C1Cl	inactive: > 100 µM
CCCCCCCCCCCCCCC(C)CCC(=O)O (stereo unspecified)	inactive: 82.2 µM
Cc1cc(C=O)c2c(=O)c3c(O)ccc(/C=C/C(C)C)c3oc2c1	inactive: > 100 µM
CN(/N=C/c1cccc2cccnc12)c1ccccc1	inactive: > 100 µM
CCN(c1ccc(Br)cc1)c1c(Br)c(=O)nc2ccccn12	inactive: > 100 µM
O=C(O)CNC(=O)c1cccc2c(=O)c3ccccc3[nH]c12	inactive: > 100 µM
CN(CC#N)C(=O)Cc1ccc([N+](=O)[O-])cc1	inactive: > 10 µM
N#CC12C3C4CC5C6C4C1C6C(O)(C53)N2Cc1ccccc1 (stereo unspecified)	inactive: > 100 µM
C[N+](C)(C)CC(=O)NC(=O)N/N=C\C(CC#N)CN(Cc1ccccc1)Cc1ccccc1 (stereo unspecified)	inactive: > 100 µM
O=C1CSC(c2cc3cc(Br)ccc3nc2Cl)N1c1ccc(Cl)cc1 (stereo unspecified)	inactive: 44.2 µM
CCCCCCCCCCCCCCCCOCC(Cl)COP(=O)(O)OP(=O)(O)OCC1OC(n2cc(C)c(=O)[nH]c2=O)CC1O (stereo unspecified)	inactive: 85.9 µM
[O-]/[N+](=C\c1ccccc1OC(=S)S)c1ccc(Cl)cc1	inactive: 80.9 µM
C=C[C@@]12CCCCC1C/C(=C(/O)OC)C(=O)C2 (stereo partly specified)	inactive: > 100 µM
CC(=O)O[C@H]1CSC[C@@H](OC(C)=O)C1[N+](=O)[O-] (stereo partly specified)	inactive: > 100 µM
COc1ccc(-c2cc(O)c3c(C)cc(C)nc3n2)cc1	inactive: 31.3 µM
O=C(CCN1CCCC1)Nc1ccc2sc3ccccc3c(=O)c2n1	inactive: 18.1 µM
COc1ccc(N(CC(=O)O)S(=O)(=O)c2ccccc2)cc1	inactive: > 100 µM
O=C(O)c1c(Cl)c(Cl)c(Cl)c(Cl)c1C(=O)Nc1ccc2cn[nH]c2c1	inactive: > 100 µM
O=C(/C=C/c1ccccc1)Oc1ccc(C(=O)/C=C/c2ccccc2)cc1	inactive: 13.5 µM
O=c1c(Cc2ccc(Cc3c(O)oc4ccccc4c3=O)cc2)c(O)oc2ccccc12	inactive: > 100 µM
